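Dose response: 5 concentrations. Exposure: 48 h. Format: 96-well plates. Endpoint: linear interpolation; highest concentration if not reached. GI50: concentration for 50% inhibition of growth.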 For part of its entries the source gives two or more results. Only these are listed. An entry can have further records. For part of these data: The tests behind the records often covered other concentration ranges, which the source does not state; some values may only mark the edge of a range. For part of these data: The values listed for one entry are repeats (runs, samples, wells, individuals or studies). What stands in brackets tells the records apart. Letters count within one entry.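 TGI marks complete inhibition of growth.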 Bounds are passed on as bounds.

Some test systems named below: TK-10 renal; 786-0 renal; HOP-92 NSCLC; OVCAR-4 ovarian; EKVX NSCLC; SNB-78 CNS; CCRF-CEM leukemia; K-562 leukemia; LOX IMVI melanoma; COLO 205 colon; MOLT-4 leukemia; UACC-62 melanoma; SR leukemia; HL-60(TB) leukemia; SK-MEL-5 melanoma; RPMI-8226 leukemia; SN12C renal; NCI/ADR-RES ovarian; SNB-75 CNS; T-47D breast; BT-549 breast; SF-295 CNS; CAKI-1 renal; MCF7 breast; UACC-257 melanoma; HOP-62 NSCLC; M14 melanoma; A549 NSCLC.

Holding throughout (assay): NCI-60 cell line screen, 48 h

As for `COC(=O)[C@@H](C)C[C@H](Cc1ccccc1)NC(=O)c1csc([C@@H](C[C@H](C(C)C)N(C)C(=O)C2(NC(=O)[C@H]3CCCCN3C)CCC2)OC(C)=O)n1`, the GI50 with TK-10 renal is 858 nM and 15.8 nM; with 786-0 renal it was 45.4 nM and 3.89 nM; in the experiment with OVCAR-4 ovarian, 10.2 nM and 909 nM; in the experiment with EKVX NSCLC, 32.8 nM and > 25 µM. Also, the TGI in the experiment on HOP-92 NSCLC was 57.2 nM and 6.79 µM.

Regarding `CCOC(=O)Nc1ccc2c(c1)N(C(=O)CCN(CC)CC)c1ccccc1S2`, the TGI in the experiment with SNB-78 CNS was 9.66 µM and 129 µM.

In the case of `C=C1C(=O)OC2CC1C(OC(C)=O)C/C(C)=C/CC/C(C)=C\CCC2(C)O` (stereo not drawn), the TGI in the experiment with CCRF-CEM leukemia was > 100 µM [sample A, 1 test] and 3.49 µM [sample B, mean of 2 tests]; with K-562 leukemia it was > 100 µM [sample A] and 9.78 µM [sample B]; with LOX IMVI melanoma, > 100 µM [sample A] and 7.1 µM [sample B].

Regarding `O=C(/C=C/c1cccc(S(=O)(=O)Nc2ccccc2)c1)NO`, the TGI is 381 nM [sample A, mean of 2 tests] and 3.97 µM [sample B, mean of 4 tests] with COLO 205 colon; 1.39 µM [sample A, mean of 2 tests] and 47.7 µM [sample B, mean of 5 tests] in the experiment with RPMI-8226 leukemia; 4.77 µM [sample A, mean of 3 tests] and 71.5 µM [sample B, mean of 5 tests] in the experiment with SN12C renal; > 75.5 µM [sample A, mean of 2 tests] and 7.39 µM [sample B, mean of 5 tests] in the experiment with T-47D breast. The GI50 is 25.3 nM [sample A, mean of 3 tests] and 307 nM [sample B, mean of 4 tests] in the experiment on MOLT-4 leukemia; < 19.6 nM [sample A, mean of 2 tests] and 296 nM [sample B, mean of 5 tests] in the experiment on UACC-62 melanoma; < 20.8 nM [sample A, mean of 2 tests] and 257 nM [sample B, mean of 4 tests] in the experiment with CCRF-CEM leukemia; < 15.9 nM [sample A, mean of 2 tests] and 196 nM [sample B, mean of 4 tests] in the experiment with SR leukemia; < 44.6 nM [sample A, mean of 2 tests] and 591 nM [sample B, mean of 5 tests] with HL-60(TB) leukemia; 28.9 nM [sample A, mean of 3 tests] and 302 nM [sample B, mean of 5 tests] in the experiment on SK-MEL-5 melanoma. The GI50 is < 22.3 nM [sample A, mean of 2 tests] and 241 nM [sample B, mean of 5 tests] in the experiment with NCI/ADR-RES ovarian; 6.89 µM [sample A, mean of 2 tests] and 295 nM [sample B, mean of 3 tests] in the experiment with SNB-75 CNS.

For the compound `O=C(/C=C/c1nnc2n(Cc3ccccc3)c(=O)c3c4c(sc3n12)CCCC4)c1ccccc1`, the GI50 in the experiment with BT-549 breast is 1.96 µM and > 100 µM; in the experiment on SF-295 CNS, 5.49 µM and > 100 µM; in the experiment with CAKI-1 renal, 3.3 µM and > 100 µM; with MCF7 breast, 3.8 µM and > 100 µM; in the experiment on UACC-257 melanoma it was 36.2 nM and > 100 µM; with HOP-62 NSCLC, 7.24 µM and > 100 µM. Also, the GI50 is 3.84 µM and > 100 µM in the experiment with M14 melanoma; 1.59 µM and > 100 µM with A549 NSCLC. Also, the TGI was 4.65 µM and > 100 µM with BT-549 breast; 3.23 µM and > 100 µM in the experiment with 786-0 renal; 2.75 µM and > 100 µM with UACC-257 melanoma; 7.58 µM and > 100 µM with A549 NSCLC.

The values are drawn from PubChem BioAssay (NCI).
